Reference: a collection of fitness landscapes (doi:10.1016/j.celrep.2020.107928)
In all, about 81,000 sequences were measured (“one-hybrid fitness for binding parS DNA”: median about -0.17, highest 2% from about 0.51 on). The list shows a part of the results.

B1: Caulobacter ParB omega fusion; a variant is named by its letters at X, in order, B8GW30 (parent)
chain: MESVVVGEPGMSEGRRGLGRGLSALLGEVDAAPAQAPGEQLGGSREAPIEILQRNPDQPRRTFREEDLEDLSNSIREKGVLQPILVRPSPDTAGEYQIVAGERAWRAAQRAGLKTVPIMVRELDDLAVLEIGIIENVQRADLNVLEEALSYKVLMEKFERTQENIAQTIGKSXSHVANXMRLLXLPDEVQSYLVSGELTAXHARAIAAAADPVALAKQIIEGGLSVRETEALARKAPNLSAGKSKGGRPPRVKDTDTQALESDLSSVLGLDVSIDHRGSTGTLTITYATLEQLDDLCNRLTRGI

Variants of: B1
Experiment: one-hybrid fitness for binding parS DNA (scaled: cognate 1, non-cognate 0); higher = stronger binding
Details: with parS DNA site
Outline: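 Fitness here means the log change in variant-to-wild-type read ratio between plasmids sequenced before and after selection. That scale was set so cognate equals 1 and non-cognate equals 0. The selection was a bacterial one-hybrid screen of Caulobacter ParB libraries, four specificity codons randomised, in E. coli USO carrying a HIS3 reporter with the site 19 bp from the promoter, grown 48 hours at 37°C on M9-minus-histidine with 0.1 mM IPTG and 5 mM 3-AT.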

Variant	one-hybrid fitness for binding parS DNA
ASKY	≤ 0.2
DLPY	≤ 0.2
GADV	≤ 0.2
EIAT	≤ 0.2
TIHC	≤ 0.2
QQQD	≤ 0.2
AAGT	≤ 0.2
SIDS	≤ 0.2
IRLC	≤ 0.2
MKVS	≤ 0.2
VMIT	≤ 0.2
IEVY	≤ 0.2
NQKF	≤ 0.2
CVQC	≤ 0.2
DREL	≤ 0.2
YCGC	≤ 0.2
WYCR	≤ 0.2
GSWS	≤ 0.2
GQRV	≤ 0.2
GMQP	≤ 0.2
FTIK	≤ 0.2
NEAV	≤ 0.2
LTMT	≤ 0.2
GLHG	≤ 0.2
RCFL	≤ 0.2
MVIL	≤ 0.2

Variant	one-hybrid fitness for binding parS DNA
QAGR	≤ 0.2
AEQL	≤ 0.2
VSEG	≤ 0.2
LWYM	≤ 0.2
IPLR	≤ 0.2
HFPC	≤ 0.2
HDNR	≤ 0.2
RDDI	≤ 0.2
TSLI	≤ 0.2
PRPV	≤ 0.2
LHDC	≤ 0.2
VLQC	≤ 0.2
KLAY	≤ 0.2
FYHF	≤ 0.2
NLNT	≤ 0.2
SSLF	≤ 0.2
KHSR	≤ 0.2
QYAF	≤ 0.2
SVWT	≤ 0.2
TSQR	≤ 0.2
KNKH	≤ 0.2
RYYV	≤ 0.2
YCTG	≤ 0.2
RIWQ	≤ 0.2
ARIK	≤ 0.2
SPPN	≤ 0.2

Variant	one-hybrid fitness for binding parS DNA
YHDT	≤ 0.2
VRAI	≤ 0.2
NLRT	≤ 0.2
DRDE	≤ 0.2
SNLK	≤ 0.2
MIDE	≤ 0.2
ALEL	≤ 0.2
WALT	≤ 0.2
GAKR	≤ 0.2
QLGN	≤ 0.2
VWKS	≤ 0.2
ALSC	≤ 0.2
SMKM	≤ 0.2
KRPE	≤ 0.2
VGQF	≤ 0.2
NAAV	≤ 0.2
HPQG	≤ 0.2
RIHM	0.331
IVVT	≤ 0.2
YWTS	≤ 0.2
PPII	≤ 0.2
FSHS	≤ 0.2
KCIT	≤ 0.2
LTWF	≤ 0.2
KNSM	≤ 0.2
YRPK	≤ 0.2

Variant	one-hybrid fitness for binding parS DNA
QRVQ	≤ 0.2
DNNS	≤ 0.2
PKGI	≤ 0.2
HSIG	≤ 0.2
FTPF	≤ 0.2
EATT	≤ 0.2
ETRL	≤ 0.2
LYPS	≤ 0.2
WRGS	≤ 0.2
RRTM	0.351
LHTG	≤ 0.2
ILKT	≤ 0.2
GQLN	≤ 0.2
RWES	0.712
MMIG	≤ 0.2
QGEI	≤ 0.2
QTGM	≤ 0.2
WTSE	≤ 0.2
ECTT	≤ 0.2
GRPW	≤ 0.2
CPKF	≤ 0.2
VPMV	≤ 0.2
LSYF	≤ 0.2
CRPP	≤ 0.2
QPIK	≤ 0.2
QGFL	≤ 0.2

Variant	one-hybrid fitness for binding parS DNA
RNTN	0.357
HKPA	≤ 0.2
CGKE	≤ 0.2
SVKN	≤ 0.2
MRHP	≤ 0.2
FARV	≤ 0.2
RWLT	0.556
TTLL	≤ 0.2
IGPR	≤ 0.2
HICD	≤ 0.2
QIVL	≤ 0.2
IKTQ	≤ 0.2
TEGW	≤ 0.2
IRMV	≤ 0.2
SLGR	≤ 0.2
SLKG	≤ 0.2
HPPT	≤ 0.2
KQHT	≤ 0.2
SCQS	≤ 0.2
IACS	≤ 0.2
SDRS	≤ 0.2
CCET	≤ 0.2
NGME	≤ 0.2
FPHL	≤ 0.2
KKLG	≤ 0.2
TQTE	≤ 0.2

Variant	one-hybrid fitness for binding parS DNA
IHKT	≤ 0.2
GRYW	≤ 0.2
RKWM	0.254
HMHL	≤ 0.2
QCTH	≤ 0.2
ITLI	≤ 0.2
ISRA	≤ 0.2
LCME	≤ 0.2
KTMW	≤ 0.2
EETT	≤ 0.2
SALK	≤ 0.2
DSSA	≤ 0.2
IFQR	≤ 0.2
QYFY	≤ 0.2
IAGR	≤ 0.2
TALA	≤ 0.2
QLFQ	≤ 0.2
CSPC	≤ 0.2
PNKG	≤ 0.2
SEKR	≤ 0.2
FPAA	≤ 0.2
LWLL	≤ 0.2
YHMC	≤ 0.2
